# Laboratory results as given in PubChem BioAssay AID485281 (National Center for Advancing Translational Sciences (NCATS), 2010).
# Values joined by “and” are separate entries in the source; they are usually repeats but may differ in a detail not shown here. Identical values can stand only once. Hit rate of the full screen: of about 350,000 compounds, about 260 (0.074%) were called active. The shares of active, inactive and inconclusive entries below differ from those in the screen. The call rests on the fitted dose curve; in most records, active means well fitted inhibition curve with a large enough effect; inconclusive means small, poorly fitted or top-dose-only effect; inactive means no such curve, though single readings can be large or run the other way. Potencies beside an inconclusive call are fits to weak or partial responses and may not hold up.
# Target: Ferritin light chain (Equus caballus) (UniProt P02791)
# Sequence of UniProt P02791 (P02791 whole entry, looked up): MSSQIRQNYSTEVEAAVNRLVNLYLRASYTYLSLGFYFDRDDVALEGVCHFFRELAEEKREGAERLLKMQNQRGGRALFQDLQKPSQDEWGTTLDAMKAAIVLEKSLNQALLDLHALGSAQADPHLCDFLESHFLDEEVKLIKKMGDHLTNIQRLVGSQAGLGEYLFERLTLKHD
# Experiment: qHTS Assay for Identification of Novel General Anesthetics; further: nearly all actives have a fitted effect of over 20% in size
# Details: apoferritin/1-aminoanthracene competitive binding, fluorescence; activity change, negative = displacement: at 77.5 µM (top of the series)
# How it was run: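 Concentration-response curves derived by four-parameter Hill fitting of normalized fluorescence, where compounds displaced 1-AMA from 10 uM horse apoferritin following a brief 10 min room-temperature incubation; propofol titration acted as positive control.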
# On the % scale 0 is the no-effect control and ±100 the full control effect; potency means the concentration at half of the fitted maximal effect; tags describe the fitted curve by direction and shape.
Compound,Potency,"activity change, negative = displacement"
CCOc1ccccc1NC1=C(Cl)C(=O)N(Cc2ccccc2)C1=O,"inconclusive: 39.8 µM [inhibitor, single point]",
CCCSc1ncc(Cl)c(C(=O)Nc2ccc(S(=O)(=O)N3CC(C)OC(C)C3)cc2)n1 (centres undefined),"inconclusive: 31.6 µM [inhibitor, partial curve]",
CC1CC(C)(C)N(C(=O)CN2C(=O)c3ccccc3C2=O)c2ccccc21 (centres undefined),"inconclusive: 56.2 µM [inhibitor, single point]",
O=C(c1ccccc1)N1CCCCC(S(=O)(=O)c2ccccc2)C1=O (centres undefined),"inconclusive: 35.5 µM [inhibitor, partial curve]",
COc1cccc(NC(=O)Cn2nnc(C(=O)NCc3ccc4c(c3)OCO4)c2N)c1,"inconclusive: 11.2 µM [inhibitor, full curve] and inconclusive: 3.55 µM [inhibitor, full curve]",
Cc1ccc2nc3sc(C(=O)Nc4ccc(N5CCOCC5)cc4)c(N)c3cc2c1,,inactive: -0.991%
O=S(=O)(Cc1ccccc1Cl)NCCc1ccccc1,"inconclusive: 14.1 µM [inhibitor, partial curve]",
COc1ccc(C(=O)NC(=S)Nc2ccc(Cc3ccncc3)cc2)cc1,"inconclusive: 17.8 µM [inhibitor, partial curve]",
CSc1ccc(CN2CCCC(CNC(=O)c3ccc(F)cc3)C2)cc1 (centres undefined),,inactive: -9.29%
N#C/C(=C\c1ccccc1)C(=O)Nc1cc(S(=O)(=O)N2CCOCC2)ccc1N1CCCC1,,inactive: -3.52%
O=C(CSc1cccc2cccnc12)OCC(=O)c1ccccc1,"inconclusive: 31.6 µM [inhibitor, partial curve]",
CC(C)CNC(=S)NC(=O)c1ccc([N+](=O)[O-])cc1,"inconclusive: 12.6 µM [inhibitor, partial curve]",
Clc1ccc(Cn2cccc2C2=NCCO2)cc1,"inconclusive: 20 µM [inhibitor, partial curve]",
CN(C)S(=O)(=O)Nc1cc(F)cc(F)c1,"inconclusive: 20 µM [inhibitor, partial curve]",
CC(C)CC(=O)Nc1ccc([N+](=O)[O-])cc1Cl,"inconclusive: 25.1 µM [inhibitor, partial curve]",
CC1Cc2ccccc2N1C(=O)CN1C(=O)NC(C)(CCc2ccccc2)C1=O (centres undefined),"inconclusive: 28.2 µM [inhibitor, partial curve]",
COc1cc(C)c(C(=O)Oc2cc(C)c(C(=O)O)c(O)c2C)c(OC)c1C,"inconclusive: 39.8 µM [inhibitor, single point]",
COc1ccc(N2C(=O)C3C4C=CC(C5CC45)C3C2=O)c([N+](=O)[O-])c1 (centres undefined),"inconclusive: 15.8 µM [inhibitor, partial curve]",
Cc1cc(C)cc(NC(=S)NC(=O)C2CC2)c1,,inactive: -21.2%
O=C1c2ccccc2C(=O)N1Cc1ccco1,"inconclusive: 50.1 µM [inhibitor, single point]",
CCOC(=O)c1c(C)[nH]c(C)c1S(=O)(=O)N1CCCC(C(=O)Nc2cccc(CC)c2)C1 (centres undefined),"inconclusive: 15.8 µM [inhibitor, partial curve]",
CCOc1ccccc1C=Nc1ccccc1C(=O)Nc1ccccc1,,inactive: 66.5%
COc1ccc(-n2nnc(-c3nsc(NC(=O)c4cccc(C)c4)n3)c2C)cc1OC,"inconclusive: 15.8 µM [inhibitor, partial curve]",

Compound,Potency,"activity change, negative = displacement"
Cc1ccccc1N1C(=O)C(Cl)=C(N2CCOCC2)C1=O,"inconclusive: 17.8 µM [inhibitor, partial curve]",
COc1ccccc1NC(=O)N1CCN(c2nnc(C)c3c(C)n(-c4ccccc4)nc23)CC1,"inconclusive: 31.6 µM [inhibitor, single point]",
Cc1ccc(NC(C)C(=O)N/N=C/c2ccc([N+](=O)[O-])s2)cc1 (centres undefined),"inconclusive: 22.4 µM [inhibitor, partial curve]",
CC(C)CC(N)C(=O)NC(C)C(=O)O (centres undefined),,inactive: 7.04%
COc1cc(C#N)ccc1OCC(=O)c1ccc2c(c1)OCCO2,"inconclusive: 31.6 µM [inhibitor, partial curve]",
CCOC(=O)c1c(NC(=O)CSc2ncn[nH]2)sc(C)c1C,,inactive: -14.8%
Cc1ccccc1NCC(=O)N/N=C/c1ccc([N+](=O)[O-])cc1,"inconclusive: 39.8 µM [inhibitor, partial curve]",
O=c1c2ccccc2nnn1Cc1ccc(Br)cc1,"inconclusive: 25.1 µM [inhibitor, partial curve]",
O=C1N(Cc2cccnc2)C[C@@H]2C[C@@H](c3ccc(C(F)(F)F)cc3)N3CCC[C@@]123,,inactive: -22.9%
O=C(CNC(=O)Cc1ccccc1)NCC(=O)OCC(=O)c1cccc2ccccc12,"inconclusive: 31.6 µM [inhibitor, partial curve]",
CN1CCN(C(=S)c2cn(CCOc3ccccc3)c3ccccc23)CC1,"inconclusive: 31.6 µM [inhibitor, single point]",
Cc1cc(N2CCN(C/C=C/c3ccccc3)CC2)n2ncnc2n1,,inactive: -5.99%
CCCCCCCC/C=C/CCCCCCCC(=O)NCCOP(=O)(O)O,"inconclusive: 22.4 µM [inhibitor, partial curve]",
CCc1nnc(NC(=O)CSc2nnc(CNc3cccc(C)c3)n2-c2ccccc2)s1,"inconclusive: 28.2 µM [inhibitor, partial curve]",
CCc1ccc(S(=O)(=O)Nc2cc3c(cc2C)n(C)c(=O)c(=O)n3C)cc1,,inactive: 0.306%
O=C(CSc1nc(=O)[nH]c2c1CCC2)Nc1cc(C(F)(F)F)ccc1Cl,"inconclusive: 50.1 µM [inhibitor, single point]",
Cn1nc(C(F)(F)F)c2cc(C(=O)Nc3ccc(C(F)(F)F)cc3)sc21,,inactive: -4.86%
O=C(Cc1ccc(F)cc1)Nc1nnc(SCC(=O)N2CCCCC2)s1,"inconclusive: 5.01 µM [inhibitor, full curve]",
Clc1cccc(COn2c(-c3ccc(Cl)cc3Cl)nc3ncccc32)c1,"inconclusive: 28.2 µM [inhibitor, partial curve]",
COc1ccc(C(=S)N2CCCC2)cc1,,inactive: -1.34%
CC(Sc1nnnn1-c1ccc(Cl)cc1)C(=O)NCC(=O)Nc1ccc(F)c(F)c1F (centres undefined),,inactive: -11.1%
O=C(CCc1ccc(S(=O)(=O)N2CCOCC2)cc1)N1CCc2ccccc2C1,,inactive: -9.3%
Cc1ccc(NC(=O)c2nc(S(=O)(=O)Cc3ccc(F)cc3)ncc2Cl)cc1C,"inconclusive: 6.31 µM [inhibitor, single point]",

Compound,Potency,"activity change, negative = displacement"
COc1ccc(-c2ccnc3nc(Sc4ncc(C(F)(F)F)cc4Cl)nn23)cc1,"inconclusive: 3.98 µM [inhibitor, full curve]",
COc1cc(CNC(=O)c2ccc(NC(=O)N3CCCCc4ccccc43)cc2)cc(OC)c1OC,"inconclusive: 25.1 µM [inhibitor, partial curve]",
COc1ccc(-n2cccc2/C=C2\C(=N)N3N=C(C(C)C)SC3=NC2=O)cc1,"inconclusive: 22.4 µM [inhibitor, partial curve]",
CCC1CCCCN1C(=O)c1cc(COc2ccc(-n3cncn3)cc2)on1 (centres undefined),"inconclusive: 50.1 µM [inhibitor, single point]",
CCN(C(=O)c1ccc2c(Cl)c3c(nc2c1)CCC3)c1cccc(C)c1,"inconclusive: 50.1 µM [inhibitor, single point]",
CC(C)CN(C(=O)CN(C)S(=O)(=O)c1ccc(Cl)cc1)C1CCS(=O)(=O)C1 (centres undefined),,inactive: -1.28%
CC(C)CCOc1ccc(C2CC(=O)N(C)C2=O)cc1 (centres undefined),"inconclusive: 35.5 µM [inhibitor, partial curve]",
Clc1ccccc1-c1nc(-c2ccccc2)n[nH]1,"inconclusive: 28.2 µM [inhibitor, partial curve]",
Nc1ccc(-c2nc3cc(N)ccc3o2)cc1,,inactive: 242%
CN(C(=O)COC(=O)c1sc2ccccc2c1Cl)C1CCCCC1,"inconclusive: 35.5 µM [inhibitor, partial curve]",
Cc1ccc(NC(=O)c2sc(Cl)nc2-c2ccccc2)cc1,"inconclusive: 28.2 µM [inhibitor, partial curve]",
Cc1ccc(OCC(=O)NCC(=O)OCc2cc(=O)n3nc(CC(C)C)sc3n2)cc1,"inconclusive: 14.1 µM [inhibitor, partial curve]",
Oc1cncc(Cc2ccccc2)c1,"inconclusive: 22.4 µM [inhibitor, partial curve]",
Cc1ccc(C2(C(F)(F)F)N=C3Sc4cc(C)ccc4N3C(=O)N2)cc1 (centres undefined),"inconclusive: 3.98 µM [inhibitor, single point]",
Cc1ccc(NC(=O)Cn2nc(C)c3nn(-c4ccc(Cl)cc4)c(C)c3c2=O)cc1F,,inactive: -3.15%
CNC(=S)Nc1ccc(C23CC4CC(CC(C4)C2)C3)cc1,,inactive: -7.75%
CC1N(C)c2cc(NC(=O)c3ccco3)ccc2C1(C)C (centres undefined),"inconclusive: 25.1 µM [inhibitor, partial curve]",
CCN(CC)c1ccc(N=Nc2nn(C)c(C)c2[N+](=O)[O-])cc1,,inactive: -8.51%
Cc1ccc(C(=O)Nc2ccc(N3CCN(C(=O)c4cccs4)CC3)cc2)c(Cl)c1,,inactive: -18.6%
Cc1cc(C)n(-c2ccc(C(=O)NCc3cccs3)cc2)n1,"inconclusive: 25.1 µM [inhibitor, partial curve]",
CC(C)(C)C1=Nn2c(nnc2-c2ccco2)SC1,,inactive: -9.5%
O=C(CNC(=O)c1cccs1)N/N=C/c1ccc(Cl)cc1,"inconclusive: 17.8 µM [inhibitor, partial curve]",
CCOC(=O)c1cc(-c2ccco2)nc2c1c(C)nn2-c1ccccc1,"inconclusive: 39.8 µM [inhibitor, partial curve]",
